The chains are these.
B1: OR4K15 (parent)
chain: GUUAACGGUCAUAGGCCAUGGAAACUAGGAGCACCAUUUCGCUGCCAGUGAAGAAAUGAACAAAGAAAAUCUGGGCCAGGCAGGCAUCAAAAGAAAUAGUCUUGCGCUCAACCAGAAAGUCUGUAAUCAUUUUAAGGGUA

Read counts are not given, so values of variants with three or more changes are uncertain.

In this series the parent is B1. Nature of the series: self-cleavage, relative activity (ratio to wild type); higher = more cleavage; in vitro, sequencing; the parent is a self-cleaving ribozyme.
U19A U122C U139A: the self-cleavage is 0.8. The same measure for U19C C46A A66G U87C A96G: 1; for U19A A67G A96G: 1.47; for U19A A64U U102C U131C U132C: 2.55. The same measure for U19C A89G U102C C107U: 0.01; for U19C A27G A60G: 0.93; for U19C A82U A96G U102A C112A U131C: 0.01. U19C A24G U37C A91G G106A: the self-cleavage amounted to 0.03. In the case of U19C A60G U87C it was 0.84; in that of U19C A68U A91G U102C, 1.46. The same measure for U19A C32U C71U U103C: 0.27. The same measure for U19C C32U U70C A89U: 0.73; for U19A A55G A89U G104U A118G: 0.01; for U19C A116U U120C: 0.11. Take U19A U39C A51G A69G: the self-cleavage turned out to be 1.06. U19C A78G U108C: the self-cleavage stood at 0.02. In the case of U19A C35A A47G U57C A67G A111G U122C U131C it was 0.01; in that of U19C A27G A56G A69U A86G A117G, 1.2; in that of U19C A55C U100A C109U, 0.06. For U19C A27U C34U U57C A59G A69C U102C, the self-cleavage came to 1.05. In the case of U19A A59U A90G it was 1.09; in that of U19A A23G C76U A114G U132C, 0.18; in that of U19C G79U U127C, 0.06. In the case of U19A A82U U120C it was 0.07; in that of U19C A52G A92G U102A, 0.71. For the variant U19A A24G A47G A60G A95G A98G U131A, the self-cleavage turned out to be 0.94. In the case of U19C A111G U122C it was 0.01. Consider A18U U103C A111G, for which the self-cleavage was 0.04. For U19C A23G A51G, the self-cleavage amounted to 1.18. Take U19C A52G A89C: the self-cleavage is 1.7. Consider U19C A52G A66G A67G A86G A111U U139A, for which the self-cleavage stood at 0.04. The same measure for U19C A111G G115U: 0.01; for U19C A51G A82G U122C: 0.12; for U19A A27G A36G: 1.23. In the case of U19A U100C A126G it was 1.39. As to U19C A64G U72C, the self-cleavage worked out at 0.19. On to U19C A24G U37C A54G A63G A66U U87C, for which the self-cleavage is 0.87.

With U19C A52U U131C, the self-cleavage came to 1.13. In the case of U19A A47G A63G A117G A129G it was 0.97; in that of U19C G83A U97A, 1.48; in that of U19A A59G U127C, 0.9. U19C A94G U108C A140U: the self-cleavage came to 0.02. In the case of U19A A89G A92G U132C it was 1.25; in that of U19C A68G A125G, 0.53; in that of U19A U70C A118G, 0.11. Turning to U19C A22G A111G, the self-cleavage came to 0.07.

Regarding U19A U39C A56G U102C U103C A140G, the self-cleavage turned out to be 0.01.

In the case of U19C G20A A24G U57A C105U, the self-cleavage is 0.14.

U19A A33G A62G: the self-cleavage turned out to be 1.46.

On to U19C A56G A59G A82U A135G, for which the self-cleavage came to 0.2. In the case of U19A C61U G80U it was 0.11. The same measure for U19A U38C U49C: 1.83.

As for U19C A68G A118U, the self-cleavage was determined as 0.77.

Regarding U19A A67G A91G, the self-cleavage stood at 0.55.

Take U19C A27G U72C U139C: the self-cleavage is 0.4. In the case of U19C A62G A86G A89G it was 1.32. The same measure for U19A U97C G115U: 0.07; for U19C A68U U130C: 0.52; for U19C A86U A125G: 1.07. The same measure for U19C A78G A91G: 0.21; for U19A U37C A51G A62G: 1.17.

For the variant U19C A126U U127C, the self-cleavage was determined as 0.49. For the variant U19C U26C A33U, the self-cleavage turned out to be 0.61.

Turning to U19A A30G A90G, the self-cleavage amounted to 0.71.

Regarding U19C A51G A78G A96G, the self-cleavage came out at 0.35.

For U19C A82G U97C A98G, the self-cleavage was 0.54. As to U19C A22G U43G A69G C112U, the self-cleavage was 0.07.

U19C A62U A89G U102C A134G A135G: the self-cleavage came to 2.18. The same measure for U19A A22G A68G A82G A90G A94G: 0.71; for U19A A30U A78U A86G: 0.11. In the case of U19A A54G A55G A63G U100C, the self-cleavage worked out at 2.07.

Regarding U19A A36U G75C U130C, the self-cleavage came out at 0.08. In the case of U19C A23G A78U A125G A126U it was 0.06.

Turning to U19C A91U A98G, the self-cleavage was 0.65. As to U19A A23G A33C U43C U72C U87C A116G, the self-cleavage turned out to be 0.1. The same measure for U19C A47G A59G: 0.85.

For U19C A55G A95G A111G, the self-cleavage is 0.01. For the variant U19A A98G C121U, the self-cleavage amounted to 0.83. The same measure for U19A G28A U70A U122C: 0.59; for U19C G21U A67G A129U: 1.16. The same measure for U19A A52G A63G U139G: 1.1; for U19C A24C G137U: 1.16; for U19A A92C A96C: 0.94.

Turning to U19A U39C G106A U132C, the self-cleavage was determined as 0.01. In the case of U19C A22G A135U it was 1.13; in that of U19A A22G A64U A117G, 2.23. In the case of U19A U49C U87C it was 1.56; in that of U19C A69G U87G, 0.87. In the case of U19C A64U U72C G73A A98G A135G, the self-cleavage amounted to 0.06. Consider U19A U103C U108C, for which the self-cleavage was 0. In the case of U19A U49C A69G U131C it was 0.68.

Consider U19C A90G A98G, for which the self-cleavage worked out at 0.22. With U19C A51G A69G, the self-cleavage came to 0.57.

In the case of U19A C107U U130C, the self-cleavage is 0.01. In the case of U19C A30G A66G A69G U72G G74U A86G it was 0.21; in that of U19C A90G G104C, 0.01. The same measure for U19C A78G A94G: 0.29. Regarding U19C A47C A92G A118G U120C, the self-cleavage came to 0.48. With U19A A30G A56G U127G U131A, the self-cleavage is 0.96. As for U19C A52U A62U, the self-cleavage is 1.25.

As to U19C A47G A117G, the self-cleavage is 1.42. U19A U37C A47U A55G: the self-cleavage worked out at 1.32.

For U19A A54G A69G A90G, the self-cleavage turned out to be 1.16. The same measure for U19A A22G A67G: 1.1; for U19C A63G U70C: 0.7. The same measure for U19C A60U C121U: 2.22; for U19A A63U A92G G93A: 2.18. In the case of U19C A54G A126G A134G A135G it was 2.19; in that of U19C G79A U102C, 0.12. Consider U19C A82G A110G, for which the self-cleavage was found to be 0.06. The same measure for U19A A22G A140U: 1.25; for U19C A98G U100C U108C: 0.01; for U19C A24G U26C A63G U127C: 0.88. The same measure for U19C A66G A78U U120C: 0.44; for U19C A52G A135G: 0.76. With U19C A30G A52G, the self-cleavage stood at 0.89. Regarding A18U U70C A117G, the self-cleavage turned out to be 1.18. The same measure for U19C A30G G83A: 1.65; for A18U U102C A111G: 0.01. In the case of U19A G93A U122C it was 1.92.

With U19C A24G U43G A60U A94U, the self-cleavage came to 1.66. For the variant U19A A52U A111U, the self-cleavage amounted to 0.1. In the case of U19A A52G A60G it was 1.21; in that of U19C A23G G50A A54G A68U U120C U132C, 0.57. Turning to U19A U37C G41A U122C, the self-cleavage stood at 0.47. Take U19A A30U U108C A118G: the self-cleavage was 0.01. The same measure for U19A U87C A135G: 1.8; for U19C A22G U49C A91U: 1.11; for U19C A22U C25U A69G: 1.07. U19C A24G A64G A140G: the self-cleavage turned out to be 1.06. The same measure for U19C A62U A140G: 1.25. Consider U19C U26C U37C A94G, for which the self-cleavage was 1.22. On to U19C G79A A117G, for which the self-cleavage was 0.13. In the case of U19A A23U A68G C121A it was 1.52; in that of U19C A52G A62G A64G C113U, 0.03. In the case of U19A A66G A126G G136A it was 2.21; in that of A18U U97C G104C, 0.02; in that of U19A U43A A60G, 1.78. U19A A24G A54G A64U A68G U130C: the self-cleavage is 0.81. The same measure for U19C A89G U131C: 0.93; for U19C A68G A111G: 0.02. In the case of U19C A92G U103C U131C it was 0.57; in that of U19A A23G A68G, 0.39. Take U19A U39C A90G: the self-cleavage stood at 1.67.

Consider U19C G48U A116U, for which the self-cleavage came to 0.42.

On to U19A G84A A114G, for which the self-cleavage was found to be 0.58. As for U19C A59G A60C A82U, the self-cleavage is 0.19. In the case of U19C A78U A82U U102C U122C A134G it was 0.23; in that of U19C A62C C112A, 0.09. Regarding U19A U43A U49G A62U A78G A89G C128U, the self-cleavage amounted to 0.13. For U19C A55U A129U, the self-cleavage stood at 0.76. In the case of U19C A67G U87C A140G it was 1.26; in that of U19C A22G A63G, 1.15; in that of U19A A23U A98G U127A, 0.65. As to U19C C25U A78U, the self-cleavage turned out to be 0.37.

Regarding U19A A22G U108A, the self-cleavage turned out to be 0.06.

Take U19A A96G U103C: the self-cleavage turned out to be 1.15. Turning to U19A C40U A82U U97C A117G, the self-cleavage turned out to be 0.06. The same measure for U19C A24C A55G: 2; for U19C A68G A89G U130C: 1.11; for U19C A54G A68G: 1.16.

Regarding A18U U127C U132C G137C, the self-cleavage turned out to be 0.85.

Take U19C G41A A56G C88U U97C: the self-cleavage was 0.67. In the case of U19A A23G A51U A67G A118G U122C U139C it was 0.75; in that of U19A A23G A24C U57C A66U, 1.02.

On to U19A C40A A64G U103C U127C, for which the self-cleavage was found to be 0.78.

On to U19A A47G A59U A68G, for which the self-cleavage amounted to 0.93.

Source of the values: the RNAGym collection of RNA variant scans (doi:10.7554/elife.90254).
